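Briefly, cells in 96-well plates were exposed to five compound concentrations for 48 h, and endpoints were estimated by linear interpolation. Here, GI50 denotes the concentration required for 50% inhibition of growth. TGI: concentration producing complete growth inhibition.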
Tested on: NCI-H322M lung
Experiment: DTP human tumour cell line panel, 48 h

Row | SMILES | GI50 [µM] | TGI [µM]
1 | CN(C)c1ccc(-c2c(NC(C)(C)C)nc3c(OCCc4ccccc4)cccn23)cc1 | 2.75 | 16.1
2 | COc1ccccc1/C=C/C=N/NC1=NC2C(S1)N(C)C(=O)N2C (centres undefined) | 5.73 | > 100
